Values marked as one replicate rest on one cluster of the flow cell; about a third of the high ones do not repeat.
Tested on: ATP
Experiment: switch fluorescence ratio, 500 uM ATP over buffer (Cy3 cluster intensity, sum of 5 cycles each) (fold (ratio)); higher = stronger signal-on switching upon ATP binding; sequences stand for … in TCGTCGGCAGCGTCAGATGTGTATAAGAGACAGTTTTTTTTTTTTTTTTTTTTTTTTT…TC
Conditions: aptamer strand: ATP DNA aptamer (quencher-CACCTGGGGGAGTATTGCGGAGGAAGG + anchor), 100 nM annealed; ATP concentration: 500 uM; one replicate
Outline: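 Switching-strand clusters labelled with Cy3 on a modified Illumina MiSeq flow-cell were annealed to 100 nM quencher-labelled ATP aptamer, imaged in selection buffer, and re-imaged after 15 min with 500 uM ATP at 22 °C. This was done over five cycles with NaOH stripping and re-annealing in between. The fluorescence ratio is summed target-cycle over summed buffer-cycle Cy3 intensity per cluster, averaged per switch-domain sequence, excluding clusters outside 100-1000 RFU.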
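Further: ATP exposure 15 min at 22 °C before imaging.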

| Sequence | switch fluorescence ratio |
| --- | --- |
| GGTCAGATTG | 0.994 |
| AATTAGATAA | 0.963 |
| TTAATTCTAG | 0.972 |
| ACGATCGTTG | 0.98 |
| GCTGTGCATG | 1 |
| CCTTGTATCA | 0.962 |
| ACAATTATG | 0.983 |
| AGGGGAACT | 1.13 |
| GAGATACTGG | 1.04 |
| GACCGAGTAA | 1.29 |
| TTTGCCGCTC | 1.09 |
| TATATTAACT | 1.07 |
| GCTAGGAATA | 0.999 |
| TCATTCGTAC | 1.56 |
| ATCCGGCGTT | 1.02 |
| TGTGTAGCGT | 1.01 |
| AATCTTAGGT | 1.13 |
| GATACTTGAT | 0.974 |
| CCAGAAAATA | 0.984 |
| TCAGTATTG | 1.01 |
| CCGGCAGGAA | 0.988 |
| TCCGATTCAA | 4.89 |

| Sequence | switch fluorescence ratio |
| --- | --- |
| TGCTGCTGTT | 1.05 |
| GGTGCACATT | 0.998 |
| TAAGTGTCAC | 0.971 |
| TTGAGTATAA | 0.998 |
| GGGGGTCTCT | 0.99 |
| TGGCGTTAGT | 1.07 |
| GCCCATACGA | 1.29 |
| TTTTGCCGGG | 0.947 |
| TTGTGACATG | 1.08 |
| CCTAGAGAGC | 1 |
| AAATTATTAG | 0.998 |
| CAATCTGCCA | 1.05 |
| AACCTAATAG | 1.02 |
| CGGAGGCGTG | 0.937 |
| CCCTTAACAA | 1.11 |
| ACCGTGAGGG | 0.976 |
| TATTAATTA | 0.937 |
| AAACTAGACG | 1.07 |
| CCATGATGCT | 0.971 |
| TGAGACACCC | 1.1 |
| GTCGCTGGAG | 0.998 |
| AAAAGGCCCT | 1.13 |

| Sequence | switch fluorescence ratio |
| --- | --- |
| TCGTGTAGAA | 1.01 |
| TCAACAGAGA | 1.02 |
| CGGTCAGGC | 0.95 |
| CTCGCTCGAA | 1.08 |
| TTTTAGAAGA | 1.04 |
| CGGGTGATAG | 0.996 |
| GCGCTGGCCC | 1.02 |
| TGTAGTGCAA | 1.04 |
| GTTTGGGTTC | 1.01 |
| ACGGGTGTCT | 1.05 |
| GAGGTAATAG | 2.54 |
| ACCTCATTA | 1.05 |
| AATGGTAAAG | 1.02 |
| AGTGAGGAAG | 0.994 |
| CAACTTGCA | 0.996 |
| CGCGGTAAAT | 1.3 |
| CGGTAGTATT | 1.02 |
| AGGTTCGCCC | 0.995 |
| AGGTGCGGCC | 1 |
| CATTTGTTTC | 1.07 |
| TAGGCAGGTT | 0.999 |
| CGATGCGCGG | 0.965 |

| Sequence | switch fluorescence ratio |
| --- | --- |
| TCACCTTGCG | 1.07 |
| ATGTGGCAAT | 1.19 |
| TAAGTAGTCT | 1.01 |
| AGCCTAAGA | 0.971 |
| CGCATATTTC | 1.51 |
| GTGGTTAACT | 1.05 |
| GCCCTATGC | 0.999 |
| CAAGTTGACG | 1.1 |
| GGGTACACGA | 0.955 |
| ACCTCCCGTA | 1.16 |
| CTGTTACGGC | 1.02 |
| AGTGACCACA | 1.05 |
| CTTCTAGTCA | 0.964 |
| TACAGGAACA | 1.04 |
| CAAGGCAACC | 1.27 |
| TTGTTAAGTT | 0.975 |
| CGTGGTTGTA | 0.999 |
| TCTATGCTCT | 1.02 |
| AATGTGTTCG | 1.02 |
